Assay results taken from the RNAGym collection of RNA variant scans (doi:10.7554/elife.90254).
Read counts are not given, so values of variants with three or more changes are uncertain.

B1: LINE1-mini (parent)
chain: GGCAGAGCUCAACACAGCGUGGCAAAGUGGCUGUGGCUAGACUGCC

Variants of: B1
Test: self-cleavage, relative activity (ratio to wild type); higher = more cleavage; in vitro, sequencing; the parent is a self-cleaving ribozyme

Question: For U20C U38G A39C A41U, which self-cleavage is on record?
Answer: 0.04

Question: Which self-cleavage does the source give for U20C U38G C45A here?
Answer: 0

Question: For U20G A24C C37U, which self-cleavage is on record?
Answer: 0.02

Question: With U20G A24U G33A C42U as the variant, how does the self-cleavage read?
Answer: 0.06

Question: Which self-cleavage does the source give for U20G A25C U34A C37A here?
Answer: 0.02

Question: Which self-cleavage does the source give for U20G A25C U43C here?
Answer: 0.04

Question: For U20G A25G G44U, which self-cleavage is on record?
Answer: 0.02

Question: For U20G C23G A39G G44C, which self-cleavage is on record?
Answer: 0.02

Question: For U20G C23U G35U C42G, which self-cleavage is on record?
Answer: 0.04

Question: Which self-cleavage does the source give for U20G C23U U32C A39C here?
Answer: 0.12

Question: With U20G C31A A41C as the variant, how does the self-cleavage read?
Answer: 0.03

Question: With U20G G21U A24G as the variant, how does the self-cleavage read?
Answer: 1.22

Question: For U20G G21U G35A, which self-cleavage is on record?
Answer: 0.46

Question: For U20G G21U U34G U43A, which self-cleavage is on record?
Answer: 0.02

Question: For U20G G22A C23U G36A, which self-cleavage is on record?
Answer: 0.08

Question: For U20G G22A G40U, which self-cleavage is on record?
Answer: 0.22

Question: For U20G G22A U32G, which self-cleavage is on record?
Answer: 0.09

Question: For U20G G22C A26C, which self-cleavage is on record?
Answer: 0.13

Question: With U20G G22U C37A as the variant, how does the self-cleavage read?
Answer: 0.06

Question: With U20G G22U C45U as the variant, how does the self-cleavage read?
Answer: 0.71

Question: For U20G G27C C31U, which self-cleavage is on record?
Answer: 0.18

Question: Which self-cleavage does the source give for U20G G27U C46G here?
Answer: 1.27

Question: For U20G G29A C46G, which self-cleavage is on record?
Answer: 0.21

Question: For U20G G29C G36U, which self-cleavage is on record?
Answer: 0.31

Question: With U20G G30U C42U as the variant, how does the self-cleavage read?
Answer: 0.51

Question: Which self-cleavage does the source give for U20G G33A C42G here?
Answer: 0.04

Question: For U20G G33U U38C G44A, which self-cleavage is on record?
Answer: 0.03

Question: For U20G G35C A39G, which self-cleavage is on record?
Answer: 0.07

Question: Which self-cleavage does the source give for U20G G35C C46U here?
Answer: 0.02

Question: With U20G G36U C37U A39U G44U as the variant, how does the self-cleavage read?
Answer: 0.02

Question: For U20G G40A C45U, which self-cleavage is on record?
Answer: 0.11

Question: Which self-cleavage does the source give for U20G G40U C46G here?
Answer: 0.07

Question: With U20G G40U G44A as the variant, how does the self-cleavage read?
Answer: 0.03

Question: With U20G U28A G36C C46U as the variant, how does the self-cleavage read?
Answer: 0.05

Question: Which self-cleavage does the source give for U20G U38A U43C here?
Answer: 0.01

Question: With G21A A24C G35A A39U as the variant, how does the self-cleavage read?
Answer: 0.1

Question: With G21A A24U C31A C46A as the variant, how does the self-cleavage read?
Answer: 0.08

Question: Which self-cleavage does the source give for G21A A25C C31A G33U here?
Answer: 0.02

Question: For G21A A25U C31G, which self-cleavage is on record?
Answer: 0.11

Question: With G21A A25U U38G as the variant, how does the self-cleavage read?
Answer: 0.05

Question: With G21A A26C G33C as the variant, how does the self-cleavage read?
Answer: 0.04

Question: With G21A A26U G36C as the variant, how does the self-cleavage read?
Answer: 0.36

Question: For G21A A26U G40A, which self-cleavage is on record?
Answer: 0.04

Question: With G21A A26U U43G G44A as the variant, how does the self-cleavage read?
Answer: 0.16

Question: For G21A A41C G44U, which self-cleavage is on record?
Answer: 0.17

Question: Which self-cleavage does the source give for G21A C23A G29U here?
Answer: 0.23

Question: For G21A C23G C37A A41C U43C, which self-cleavage is on record?
Answer: 0.05

Question: With G21A C23U C31A G33A C42A as the variant, how does the self-cleavage read?
Answer: 0.07

Question: Which self-cleavage does the source give for G21A C23U C46A here?
Answer: 0.23

Question: With G21A C31A C46G as the variant, how does the self-cleavage read?
Answer: 0.09

Question: For G21A C31A G33A, which self-cleavage is on record?
Answer: 0.04

Question: Which self-cleavage does the source give for G21A C31G G40C here?
Answer: 0.02

Question: For G21A C31G U34G A39U, which self-cleavage is on record?
Answer: 0.02

Question: With G21A C37A A39G as the variant, how does the self-cleavage read?
Answer: 0.02

Question: Which self-cleavage does the source give for G21A C37U G40A G44U here?
Answer: 0.06

Question: With G21A C42U C45G as the variant, how does the self-cleavage read?
Answer: 0.14

Question: With G21A C42U C46U as the variant, how does the self-cleavage read?
Answer: 0.67

Question: For G21A G22A G29U, which self-cleavage is on record?
Answer: 0.6

Question: With G21A G22A G36U C37U G40U as the variant, how does the self-cleavage read?
Answer: 0.18

Question: Which self-cleavage does the source give for G21A G22C A41G here?
Answer: 0.41

Question: For G21A G22U A25G U34A C46A, which self-cleavage is on record?
Answer: 0.04

Question: Which self-cleavage does the source give for G21A G22U A25U G27C G30U here?
Answer: 1.08

Question: Which self-cleavage does the source give for G21A G22U A39C here?
Answer: 0.11

Question: With G21A G22U C23U C31U G33C as the variant, how does the self-cleavage read?
Answer: 0.07

Question: For G21A G22U G30A, which self-cleavage is on record?
Answer: 0.35

Question: For G21A G27C G35U C37U U38A, which self-cleavage is on record?
Answer: 0.15

Question: Which self-cleavage does the source give for G21A G27C G40A C45A here?
Answer: 0.02

Question: Which self-cleavage does the source give for G21A G27C U32A C45U here?
Answer: 0.07

Question: Which self-cleavage does the source give for G21A G27U G44A here?
Answer: 0.91

Question: Which self-cleavage does the source give for G21A G27U U28G A41U C42U here?
Answer: 0.21

Question: Which self-cleavage does the source give for G21A G29A A41C C42A here?
Answer: 0.06

Question: Which self-cleavage does the source give for G21A G29A C42U C45A C46A here?
Answer: 0.01

Question: With G21A G29U U32C A39C as the variant, how does the self-cleavage read?
Answer: 0.09

Question: For G21A G30A C31U C42G, which self-cleavage is on record?
Answer: 0.05

Question: Which self-cleavage does the source give for G21A G30A G35U C46U here?
Answer: 0.19

Question: For G21A G30U C45G, which self-cleavage is on record?
Answer: 0.28

Question: For G21A G30U G35A A39C C46A, which self-cleavage is on record?
Answer: 0.06

Question: With G21A G33U A39U as the variant, how does the self-cleavage read?
Answer: 0.28

Question: For G21A G35A A41G, which self-cleavage is on record?
Answer: 0.04

Question: With G21A G35C C37U as the variant, how does the self-cleavage read?
Answer: 0.06

Question: Which self-cleavage does the source give for G21A G35U C37G C42G C45G here?
Answer: 0.04

Question: Which self-cleavage does the source give for G21A G36C C42G here?
Answer: 0.1

Question: With G21A U28G C31A as the variant, how does the self-cleavage read?
Answer: 0.06
